27 sequences from PMC6451091 can be followed below.

This is one part of the list. For part of these data: At the low end of the ranking the order means little. For part of these data: Measured with an extract: partners may take part in the binding.

Holding throughout (conditions): 20 mM HEPES pH 7.9, 100 mM NaCl, 1 mM DTT, 0.2 mg/mL BSA, 0.02% Triton X-100, 2% milk, 0.4 mg/mL salmon testes DNA; 1 h; temperature not stated; high values mean tight binding; double strand, one strand shown; sequences stand for … in GCCTAGCAC…GTGCTAGGTCTTGATTCGCTTGACGCTGCTG
Assay [1] concerns the target PU.1 (IVT) (UniProt P17947). Put plainly: protein-binding microarray (PBM).
The target of assay [2] is PU.1 (endogenous, THP-1 nuclear extract) (UniProt P17947). Nature of the assay: nuclear extract protein-binding microarray (nextPBM).
Assay [3] addresses T1, FLI1 (endogenous, THP-1 nuclear extract) (UniProt Q01543).
T1 sequence: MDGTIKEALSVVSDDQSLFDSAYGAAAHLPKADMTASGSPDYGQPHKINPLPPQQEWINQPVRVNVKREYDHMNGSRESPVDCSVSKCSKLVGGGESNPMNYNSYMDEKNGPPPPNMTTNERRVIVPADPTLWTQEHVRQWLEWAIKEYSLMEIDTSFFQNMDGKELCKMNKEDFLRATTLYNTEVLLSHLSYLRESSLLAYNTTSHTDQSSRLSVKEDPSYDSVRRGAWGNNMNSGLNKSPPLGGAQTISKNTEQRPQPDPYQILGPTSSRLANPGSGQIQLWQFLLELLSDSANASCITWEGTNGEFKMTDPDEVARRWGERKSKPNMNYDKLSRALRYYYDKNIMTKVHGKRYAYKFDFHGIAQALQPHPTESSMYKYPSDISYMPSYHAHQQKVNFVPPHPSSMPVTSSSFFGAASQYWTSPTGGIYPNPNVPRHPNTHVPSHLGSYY
The description is as above.

Assay [4] concerns PU.1 (endogenous, THP-1 nuclear extract) + IRF8 (endogenous, THP-1 nuclear extract). The assay is described as above.

Regarding CTTTATAGTTGGTATAAAAA, the binding signal in assay [1] is -0.239 z-score; in assay [2], -0.495 z-score; in assay [3], -0.0786 z-score; in assay [4], 0.0252 z-score.
On the same counts, the results for AGTTAACTAAAACAGTACGG are -0.0403 z-score, -0.292 z-score, -0.551 z-score and -0.132 z-score.
With GATATTTATGACGCTTGACC, the binding signal in assay [1] was -0.44 z-score; in assay [2], -0.291 z-score; in assay [3] it was -0.681 z-score; in assay [4] it was -1.48 z-score.
On to CCAGACTCTAGGGCCAGCCT, for which the binding signal is -0.612 z-score in assay [1], -0.287 z-score in assay [2], -0.474 z-score in assay [3] and -0.0167 z-score in assay [4].
On the same counts, the results for CATTTGTCTGCGTGAAACTC are -0.459 z-score, -0.679 z-score, -0.544 z-score and 0.433 z-score.
For ACAGAGTCTTGCTCTGTCGC, the binding signal in assay [1] was -0.609 z-score; in assay [2] it was -0.0685 z-score; in assay [3] it was -0.144 z-score; in assay [4] it was 0.853 z-score.
Take AAGTGTGGGAGATTTGGAGC: the binding signal in assay [1] was -0.707 z-score; in assay [2], -0.631 z-score; in assay [3], -0.384 z-score; in assay [4], -0.615 z-score.
Consider ATTTTAGCTGCCTGAAAGCC, for which the binding signal in assay [1] was -0.444 z-score; in assay [2] it was -0.704 z-score; in assay [3], -0.608 z-score; in assay [4] it was -1.2 z-score.
CTGTCTTTGACCTTTGACAG: the binding signal in assay [1] was -0.136 z-score; in assay [2], -0.558 z-score; in assay [3], -0.255 z-score; in assay [4], -0.856 z-score.
With AAAGTTTCCAAAAGCTCCTG, the binding signal is -0.619 z-score in assay [1], -0.426 z-score in assay [2], -0.258 z-score in assay [3] and -0.239 z-score in assay [4].
On to AATTAAAAATGAGCAAAAAA, for which the binding signal is 0.259 z-score in assay [1], -0.563 z-score in assay [2], -0.243 z-score in assay [3] and -0.365 z-score in assay [4].
On to GAGAGGAGAAAAGGAACGTG, for which the binding signal in assay [1] was 0.502 z-score; in assay [2], 0.262 z-score; in assay [3], 0.0798 z-score; in assay [4], -0.367 z-score.
Turning to TAAACAGTCTGTGGAGATAA, the binding signal in assay [1] was 0.087 z-score; in assay [2] it was -0.218 z-score; in assay [3] it was -0.791 z-score; in assay [4], -0.704 z-score.
On the same counts, the results for ATCACTATGATTTCATTCCC are -0.456 z-score, -0.37 z-score, -0.377 z-score and -0.995 z-score.
For the sequence GAAAGGCAGACTTGGGCTTG, the binding signal in assay [1] was -0.755 z-score; in assay [2], -0.294 z-score; in assay [3] it was -0.312 z-score; in assay [4], 0.029 z-score.
On to AAGAGAAGAAACAGCAGAAT, for which the binding signal is -0.219 z-score in assay [1], -0.143 z-score in assay [2], -1.12 z-score in assay [3] and -0.186 z-score in assay [4].
CTCCAAGGTGTGCTACTAAG: the binding signal in assay [1] is -0.398 z-score; in assay [2] it was -0.177 z-score; in assay [3] it was 0.0251 z-score; in assay [4], 0.545 z-score.
Turning to CTCAAGGGTGAGTTACATGC, the binding signal in assay [1] is -0.801 z-score; in assay [2], -0.104 z-score; in assay [3], -0.648 z-score; in assay [4], 1.23 z-score.
Take GTCAAAAAAAGGAAAAAGCC: the binding signal in assay [1] was 0.885 z-score; in assay [2], 0.316 z-score; in assay [3], 0.857 z-score; in assay [4], -1.94 z-score.
With AAGGTTCTAGAGATCTATTG, the binding signal in assay [1] is -0.628 z-score; in assay [2] it was -0.466 z-score; in assay [3], -0.205 z-score; in assay [4], 0.0721 z-score.
Regarding GTGAGTCCCTTTTTTGTATT, the binding signal in assay [1] was 0.126 z-score; in assay [2], -0.187 z-score; in assay [3], -0.32 z-score; in assay [4] it was 1.24 z-score.
On to AGACATGAGCTACCATGTCC, for which the binding signal in assay [1] was -0.326 z-score; in assay [2] it was -0.19 z-score; in assay [3], -0.269 z-score; in assay [4] it was 1.07 z-score.
On the same counts, the results for TTCACAAAGTTGTGCAATCA are -0.0666 z-score, -0.588 z-score, -0.0407 z-score and 0.344 z-score.
Consider CTTTGGACTGAGAAGCATCG, for which the binding signal was -0.523 z-score in assay [1], -0.236 z-score in assay [2], 0.0903 z-score in assay [3] and -0.707 z-score in assay [4].
Take TTTCCTTCAGGAAAACAGTG: the binding signal in assay [1] was -0.228 z-score; in assay [2] it was -0.0901 z-score; in assay [3] it was 1.3 z-score; in assay [4] it was -0.446 z-score.
TTTTAAATTGCATGCCATTT: the binding signal is -0.0896 z-score in assay [1], -0.325 z-score in assay [2], -0.0864 z-score in assay [3] and -0.173 z-score in assay [4].
With CTGGCAGCTGCCTGAAACTC, the binding signal in assay [1] is -0.536 z-score; in assay [2], -0.606 z-score; in assay [3], -0.275 z-score; in assay [4], 2.15 z-score.
